Hit rate of the full screen: of about 360,000 compounds, about 25,000 (6.9%) were called active. This list was built around the results that the source calls inconclusive (neither active nor inactive); the mix of calls is not that of the screen. The call rests on the fitted dose curve; in most records, active means well fitted inhibition curve with a large enough effect; inconclusive means small, poorly fitted or top-dose-only effect; inactive means flat fitted curve, though single readings scatter. Where the call is inconclusive, the potency comes from a doubtful curve fit.
These molecules were tested against Luciferin 4-monooxygenase (Photinus pyralis) (UniProt P08659) (assay: qHTS profiling assay for firefly luciferase inhibitor/activator using purifed enzyme and Km concentrations of substrates (counterscreen for miR-21 project)). Conditions: purified FLuc, luminescence inhibition; series mostly up to 57.5 µM; activity change, negative = inhibition: at the top concentration.
UniProt P08659, sequence (P08659 whole entry, looked up): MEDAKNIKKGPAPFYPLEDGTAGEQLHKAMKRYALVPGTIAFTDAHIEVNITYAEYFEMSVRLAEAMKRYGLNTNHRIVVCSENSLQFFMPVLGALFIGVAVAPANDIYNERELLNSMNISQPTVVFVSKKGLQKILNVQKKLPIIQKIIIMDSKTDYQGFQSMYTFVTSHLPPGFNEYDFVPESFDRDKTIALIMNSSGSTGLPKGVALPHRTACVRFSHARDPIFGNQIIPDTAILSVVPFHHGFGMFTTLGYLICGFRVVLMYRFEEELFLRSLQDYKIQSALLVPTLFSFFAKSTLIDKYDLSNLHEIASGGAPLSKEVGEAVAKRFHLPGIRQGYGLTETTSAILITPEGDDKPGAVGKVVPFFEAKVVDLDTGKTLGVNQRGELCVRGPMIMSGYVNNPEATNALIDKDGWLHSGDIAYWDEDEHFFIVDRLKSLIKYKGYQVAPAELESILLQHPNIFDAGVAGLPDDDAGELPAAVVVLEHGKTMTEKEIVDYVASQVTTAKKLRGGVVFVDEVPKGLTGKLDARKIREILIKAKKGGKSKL
Summary of the method: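 Purified P. pyralis luciferase, 10 nM final, with Km-level 10 uM D-luciferin and 10 uM ATP in 50 mM Tris acetate pH 7.5, 10 mM Mg acetate, 0.01% Tween-20, 0.05% BSA; 6-point qHTS titration about 60 µM downward; luminescence read.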
Further: nearly all actives have a fitted effect of over 55% in size.
Potency means the concentration at half of the fitted maximal effect; tags describe the fitted curve by direction and shape.
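Wherever activity change, negative = inhibition is given: plate controls were vehicle for no effect and reference inhibitor for full effect.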

Compound	Potency	activity change, negative = inhibition
Cc1ccc(C(=O)N/C(=C\c2cn(S(=O)(=O)N(C)C)c3ccccc23)C(=O)N2CCCC2)cc1	inconclusive: 37.9 µM [inhibitor, partial curve, poor fit]	–
CCOC(=O)N1CCN(/C=C(\C#N)c2nc3ccccc3s2)CC1	inconclusive: 23.9 µM [inhibitor, single point]	–
Cc1nc2ccc(NC(=S)NCc3ccccc3)cc2nc1C	inconclusive: 26.9 µM [inhibitor, partial curve]	–
CSc1cccc(NS(=O)(=O)c2ccc3[nH]cc(C(=O)N4CCCC4)c(=O)c3c2)c1	inconclusive: 21.3 µM [inhibitor, partial curve, poor fit]	–
COc1ccc(C(=O)NC2=NCCS2)c(OC)c1	active: 6.01 µM	–
CN(C1CCS(=O)(=O)C1)S(=O)(=O)c1cccs1 (configuration not stated)	–	inactive: 1.34%
O=C(/C=C/c1ccc2c(c1)OCO2)NCCSCc1cccc(Cl)c1	inconclusive: 23.9 µM [inhibitor, single point]	–
CCOC(=O)c1cnc(Nc2nc3ccccc3o2)nc1CSC(=S)N1CCCCC1	active: 9.53 µM	–
c1ccc(-c2noc(CCC3CCCC3)n2)cc1	active: 10.7 µM	–
CN1CCN(C(=O)C2CC(=O)N(c3ccc(Cl)cc3)C2)CC1 (configuration not stated)	–	inactive: -0.331%
O=C(/C=C/c1ccccc1)N1CCC(Cc2ccccc2)CC1	active: 15.1 µM	–
C(=N\Nc1nc(-c2ccccc2)cs1)/c1ccco1	active: 2.69 µM	–
O=c1[nH]c(O)c(/C=C2\C=Nc3ccccc32)[nH]1	inconclusive: 33.8 µM [inhibitor, partial curve, poor fit]	–
Cc1cc(C)nc(SCc2nc3ncccn3c2Br)n1	–	inactive: -0.4%
O=C(COc1ccc2c(c1)OCO2)Nc1ccc2c(c1)oc1ccccc12	–	inactive: -1.68%
Cc1cccc(Oc2nc3ccccn3c(=O)c2/C=C(\C#N)c2nc3ccccc3s2)c1C	inconclusive: 13.5 µM [inhibitor, partial curve, poor fit]	–
Cc1ccc(C(=O)Nc2ccc(C(=O)O)cc2)cc1S(=O)(=O)Nc1cccc([N+](=O)[O-])c1	inconclusive: 26.9 µM [inhibitor, partial curve]	–
COC(=O)c1ccc(/C=C2\Oc3ccccc3NC2=O)cc1	inconclusive: 1.9 µM [inhibitor, partial curve, poor fit]	–
CCOC(=O)/C(=N\NC(=O)c1ccccc1)c1ccccc1	inconclusive: 19 µM [inhibitor, partial curve]	–
N/C(=N\OC(=O)Cc1ccccc1)c1cccc(Br)c1	active: 16.9 µM	–
CC(C)(C)NC(=O)C1Cc2ccccc2CN1C(=O)Nc1cccc(Cl)c1 (configuration not stated)	–	inactive: 2.01%
S=C(NCCN1CCOCC1)N/N=C/c1c2ccccc2cc2ccccc12	–	inactive: -8.64%
O=C(Nc1cc2nn(-c3ccccc3)nc2cc1Cl)c1ccco1	inconclusive: 0.675 µM [inhibitor, partial curve, poor fit]	–
COc1ccc2oc(=N)c(C(=O)Nc3ccc(C)cc3)cc2c1	inconclusive: 1.51 µM [inhibitor, partial curve, poor fit]	–

Compound	Potency	activity change, negative = inhibition
O=C(Nc1ccc(O)cc1)c1ccc(NC(=O)C2CCCO2)cc1 (configuration not stated)	inconclusive: 37.9 µM [inhibitor, partial curve, poor fit]	–
O=C(Nc1cccc(O)c1)c1cc(-c2ccco2)on1	active: 0.953 µM	–
COc1ccc(-n2ncc3c(N(C)C4CCCCC4)ncnc32)cc1	active: 0.169 µM	–
COc1c(Cl)cc(C(=O)Nc2cccc(-c3nc4ccccc4[nH]3)c2)cc1Cl	inconclusive: 10.7 µM [inhibitor, partial curve]	–
CC(=O)c1ccc(NC2=NS(=O)(=O)c3ccccc32)cc1	inconclusive: 3.38 µM [inhibitor, full curve, poor fit]	–
O=C(/C=C/c1ccco1)NCCc1ccc(F)cc1	inconclusive: 30.1 µM [inhibitor, partial curve, poor fit]	–
O=C(CSc1ccc([N+](=O)[O-])cn1)Nc1ccc(N2CCOCC2)cc1	inconclusive: 0.0107 µM [inhibitor, partial curve, poor fit]	–
CS(=O)(=O)c1ccc2nc(NC(=O)c3cc([N+](=O)[O-])cc([N+](=O)[O-])c3)sc2c1	inconclusive: 23.9 µM [inhibitor, partial curve, poor fit]	–
Cc1cc(C(=O)Cn2ncc(Cl)c(Cl)c2=O)c(C)n1CC(F)(F)F	active: 15.1 µM	–
CCOC(=O)c1c(Nc2cccc(O)c2)nnc(-c2ccccc2)c1-c1ccccc1	inconclusive: 37.9 µM [inhibitor, partial curve, poor fit]	–
CCOc1ccc(NC(=O)Nc2cccs2)cc1	active: 1.51 µM	–
O=C(CN(C(=O)CCC(=O)Nc1nccs1)c1ccccc1F)NCc1ccc(F)cc1	–	inactive: -0.713%
Cc1cc(C)c(S(=O)(=O)Nc2cc(-c3cn4ccccc4n3)ccc2C)cc1C	inconclusive: 15.1 µM [inhibitor, partial curve, poor fit]	–
COc1ccc2oc(C(=O)OCC(=O)NCCc3ccccc3)c(C)c2c1	–	inactive: -3.49%
Cc1ccc(C)c(NC(=S)N2CCC(NC(=O)c3cccc(F)c3)CC2)c1	–	inactive: -4.44%
Cc1ccccc1Nc1nc(N)nc(COC(=O)[C@@H](NC(=O)c2c(F)cccc2F)C(C)C)n1	–	inactive: 3.26%
O=C(NNC(=O)c1ccccc1Br)c1ccc(Cl)cc1	inconclusive: 26.9 µM [inhibitor, single point]	–
Nc1nc(-c2ccc(Cl)cc2)nnc1-c1ccc(Br)cc1	inconclusive: 0.953 µM [inhibitor, full curve]	–
Cc1ccc(-c2nnc(Nc3ccc(CC(N)=O)cc3)c3ccccc23)cc1S(=O)(=O)NCCO	inconclusive: 23.9 µM [inhibitor, partial curve, poor fit]	–
Cc1ccc(NC(=O)CN(C)C(=O)Nc2ccc(C)cc2)cc1	inconclusive: 37.9 µM [inhibitor, partial curve, poor fit]	–
Cc1cc(=S)n(-c2ccccc2)n1C	–	inactive: 8.35%
CN(C)c1ccc(CNC(=O)c2cc(S(=O)(=O)N3CCOCC3)cn2C)cc1	–	inactive: 3.71%
Cc1ccc2nc(-c3ccccc3)c(CN3CCN(c4ccccc4F)CC3)n2c1	inconclusive: 15.1 µM [inhibitor, partial curve, poor fit]	–
CC(C)Oc1ccc(C(=O)Nc2ccc(N3CCCCC3)cc2)cc1	inconclusive: 1.9 µM [inhibitor, partial curve]	–

Compound	Potency	activity change, negative = inhibition
CCOCCn1c(COc2ccc(C)cc2)nc2ccccc21	inconclusive: 9.53 µM [inhibitor, partial curve, poor fit]	–
CN(/N=C/c1ccc2c(c1)OCO2)c1ccccc1	active: 6.75 µM	–
CCCCN(CC)C(=O)c1cc2cc3ccc(Cl)cc3nc2o1	inconclusive: 21.3 µM [inhibitor, single point]	–
Cn1cccc1C(=O)OCc1ccc(F)cc1	inconclusive: 23.9 µM [inhibitor, partial curve]	–
CCOc1ccccc1N1CC(c2nc3ccccc3n2CCOc2ccc(OC)cc2)CC1=O (configuration not stated)	–	inactive: -10.3%
COc1ccc(-c2cc(C(=O)Nc3ccccc3O)c3ccccc3n2)cc1OC	inconclusive: 7.57 µM [inhibitor, partial curve]	–
Cc1cc(Cl)c2oc(C(=O)N(C)Cc3cc(C)[nH]n3)c(C)c2c1	–	inactive: -2.31%
COc1ccc(-c2n[nH]c(=S)n2-c2ccc3c(c2)OCCO3)cc1	inconclusive: 16.9 µM [inhibitor, partial curve]	–
FC(F)(F)c1ccc(C2NCCc3sccc32)cc1 (configuration not stated)	inconclusive: 21.3 µM [inhibitor, single point]	–
CCOC(=O)c1sc(NC(=O)c2nc3ncccn3n2)c(C(=O)OC(C)C)c1C	–	inactive: 3.57%
C=CCNC(=O)c1c2c(nc3ccccc13)-c1ccccc1CC2	inconclusive: 19 µM [inhibitor, single point]	–
CCCCCCC(=O)N(O)C1CC(=O)N(c2ccc(Cl)cc2)C1=O (configuration not stated)	inconclusive: 30.1 µM [inhibitor, partial curve, poor fit]	–
Cc1cccc(CSc2nc3cccnc3n2Cc2ccc(C(=O)NCc3cccs3)cc2)c1	inconclusive: 6.01 µM [inhibitor, full curve]	–
O=C(NCCc1csc(-c2cccnc2)n1)c1ccc(Cl)cc1	active: 9.53 µM	–
O=C(O)c1[nH]c2ccccc2c1C(c1cc(Br)ccc1O)c1c(C(=O)O)[nH]c2ccccc12	–	inactive: -13.6%
CCOC(=O)Cc1csc(NC(=S)NC(=O)c2ccc(C)cc2)n1	active: 12 µM	–
Cc1ccc2nc(SC(C)C(=O)N3CCCC3)[nH]c2c1 (configuration not stated)	inconclusive: 23.9 µM [inhibitor, partial curve]	–
O=c1[nH]c(SCc2ccc(Cl)cc2)nc2[nH]ncc12	inconclusive: 15.1 µM [inhibitor, partial curve]	–
COC(=O)c1ccc2nc(NC(=O)CN3C(=O)CCC3=O)sc2c1	inconclusive: 26.9 µM [inhibitor, single point]	–
CCOC(=O)c1c(N2C(=O)Nc3ccccc3N2O)n[nH]c1-c1cccc(OC)c1	inconclusive: 23.9 µM [inhibitor, partial curve, poor fit]	–
O=C(NCCN1CCN(c2ccccc2F)CC1)C1COc2ccccc2C1 (configuration not stated)	–	inactive: -2.54%
Cc1c(C(=O)NC2CCCCC2)oc2ccccc12	active: 15.1 µM	–
O=C(CSc1oc(-c2ccccc2)nc1S(=O)(=O)c1ccc(Br)cc1)NC1CCCCC1	–	inactive: -1.57%
COc1ccc(OC)c(NC(=O)Cc2c(C(=O)O)[nH]c3ccc(Cl)cc23)c1	inconclusive: 13.5 µM [inhibitor, partial curve]	–

From PubChem BioAssay AID588342 (National Center for Advancing Translational Sciences (NCATS), 2011)
